Consider 89 compounds from publication PMC4336329 (PLoS ONE, 2015).

About 2,200 (0.71%) of roughly 310,000 compounds showed an effect of 50% or more. The effect is printed as a negative number. The list shows a part of the results.

For this assay, the target named is human ether-à-go-go-related gene (hERG) potassium channel (human, UniProt Q12809). Description: primary screen, population patch clamp on CHO cells stably expressing hERG.
Sequence of human ether-à-go-go-related gene (hERG) potassium channel (Q12809 whole entry, looked up): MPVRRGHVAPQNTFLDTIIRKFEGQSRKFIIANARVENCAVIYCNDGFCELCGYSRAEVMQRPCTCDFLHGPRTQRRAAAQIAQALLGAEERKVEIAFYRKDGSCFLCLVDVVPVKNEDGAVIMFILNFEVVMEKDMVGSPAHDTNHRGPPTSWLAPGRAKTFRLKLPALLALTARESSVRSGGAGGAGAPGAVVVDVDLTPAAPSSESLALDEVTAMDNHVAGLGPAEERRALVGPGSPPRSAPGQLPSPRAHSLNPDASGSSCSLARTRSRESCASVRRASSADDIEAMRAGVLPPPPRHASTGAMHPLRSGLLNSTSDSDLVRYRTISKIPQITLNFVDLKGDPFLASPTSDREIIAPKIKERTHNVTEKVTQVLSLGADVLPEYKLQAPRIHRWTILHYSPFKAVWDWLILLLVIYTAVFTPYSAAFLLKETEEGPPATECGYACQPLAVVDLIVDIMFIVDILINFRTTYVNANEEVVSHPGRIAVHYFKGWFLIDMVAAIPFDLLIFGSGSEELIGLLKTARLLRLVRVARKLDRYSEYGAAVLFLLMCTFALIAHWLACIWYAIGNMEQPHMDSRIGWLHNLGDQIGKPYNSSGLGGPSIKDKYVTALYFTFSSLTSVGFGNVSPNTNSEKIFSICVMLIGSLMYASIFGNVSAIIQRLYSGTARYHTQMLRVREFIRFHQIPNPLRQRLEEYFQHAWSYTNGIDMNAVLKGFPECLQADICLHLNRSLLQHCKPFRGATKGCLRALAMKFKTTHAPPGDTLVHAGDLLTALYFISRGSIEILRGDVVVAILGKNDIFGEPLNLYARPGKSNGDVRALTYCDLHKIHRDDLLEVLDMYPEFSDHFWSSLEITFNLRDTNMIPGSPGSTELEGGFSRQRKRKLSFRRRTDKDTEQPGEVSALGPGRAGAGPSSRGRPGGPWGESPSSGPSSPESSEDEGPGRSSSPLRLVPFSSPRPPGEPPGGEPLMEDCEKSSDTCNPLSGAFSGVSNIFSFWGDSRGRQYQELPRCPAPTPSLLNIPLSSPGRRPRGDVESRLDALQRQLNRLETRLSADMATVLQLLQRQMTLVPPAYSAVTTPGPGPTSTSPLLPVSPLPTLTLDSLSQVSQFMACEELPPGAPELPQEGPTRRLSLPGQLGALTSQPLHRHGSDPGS
Turning to `COCCNC(=O)/C(C#N)=C\c1ccc(CNC(=O)C(=O)Nc2ccc(C)c(C)c2)o1`, the “hERG current change (%, negative = inhibition) at 1uM” value is listed as -14.9%. The value for `Cc1nccn1CC1CCc2c(c3ccccc3n2C)C1=O.Cl.O` (centres unmarked) was 0.51%; that for `Cc1nnc(SCC(=O)NCc2ccccc2Cl)n(N)c1=O` was -1.98%; that for `Cc1ccc(OCCCn2c(=O)oc3ccccc32)cc1` was 4.19%. The value for `S=c1oc(-c2ccncc2)nn1CCc1ccncc1` was 11%; that for `COC(=O)CN1C(c2ccccc2O)Nc2ccc(Br)cc2C1c1ccccc1` (centres unmarked) was 0.533%. The value for `COc1ccc(Cl)cc1C(=O)Nc1nc2ccccc2[nH]1` was 23.3%; that for `O=C(Cc1c[nH]c2ccccc12)NCc1ccc(Cl)cc1` was 15.7%; that for `CC12COC3(C(=O)Nc4ccc(F)cc4)CC1CCC32C` (centres unmarked) was 2.06%. As for `CC(C)c1ccc(NC2CCCN(C(=O)c3ccoc3)C2)cc1` (centres unmarked), the “hERG current change (%, negative = inhibition) at 1uM” value is listed as 15%.

On to `Cc1ccc(NS(=O)(=O)c2cc(Br)cnc2N)c(Cl)c1`, for which the “hERG current change (%, negative = inhibition) at 1uM” value turned out to be 15.1%. The value for `Cc1ccc(Cn2c([N+](=O)[O-])cnc2C)cc1` was 12.4%; that for `COc1cc(/C=N/NC(=O)COc2cccc(F)c2)ccc1OS(=O)(=O)c1ccc(C)cc1` was 12.9%. As to `CC(C)NC(=O)CSc1ncccc1-c1nc2ccccc2[nH]1`, the “hERG current change (%, negative = inhibition) at 1uM” value is 4.5%. The figure for `CC(=O)Nc1ccc(NC(=O)CS(=O)(=O)Cc2ccccc2)cc1` is -0.496%.

For `COc1ccccc1CCN=C(N)NS(=O)(=O)c1ccccc1`, the “hERG current change (%, negative = inhibition) at 1uM” value is -10.2%.

Take `CCCCOC(=O)c1ccc(OC(=O)c2cccnc2)cc1`: the “hERG current change (%, negative = inhibition) at 1uM” value worked out at 5.73%. In the case of `CCCn1c(SC/C(O)=C(\C#N)c2nc3ccccc3[nH]2)n[nH]c1=O`, the “hERG current change (%, negative = inhibition) at 1uM” value is 10.2%. For the compound `COc1ccc(OC)c(N=Cc2c(O)[nH]c(=O)[nH]c2=O)c1`, the “hERG current change (%, negative = inhibition) at 1uM” value amounted to 14.4%.

On to `Cl.OCCN1CCN(CCOc2ccccc2-c2ccccc2)CC1`, for which the “hERG current change (%, negative = inhibition) at 1uM” value is recorded as 6.46%.

For `Cc1ccc(N2C(=O)N3[C@H](c4ccc(Br)cc4)[C@@H]4C(=O)N(C(C)(C)C)C(=O)[C@@H]4[C@]3(C)C2=O)cc1`, the “hERG current change (%, negative = inhibition) at 1uM” value was 6.72%. For `COc1ccc2sc(C)[n+](C)c2c1.[I-]`, the “hERG current change (%, negative = inhibition) at 1uM” value worked out at 14.4%. The value for `Cc1ccc(C(=O)N2CCN(c3ccccc3F)CC2)cc1S(=O)(=O)N1CCOCC1` was 16.1%; that for `CC(/C=C1\SC(=O)N(CC(=O)Nc2cccc(O)c2)C1=O)=C\c1ccccc1` was 18.4%; that for `O=C(CCN=C1NS(=O)(=O)c2ccccc21)OCC(=O)c1ccccc1` was -5.87%. The value for `CC(C)(C)NC(=O)COC(=O)c1cncc(Br)c1` was 3.74%; that for `COc1cc(COCC(O)CN2CCc3ccccc3C2)cc(OC)c1OC.Cl` (centres unmarked) was 7.29%. On to `CC(C)(C)n1c(O)c(C=Nc2ccc3c(c2)CCC3)c(=O)[nH]c1=O`, for which the “hERG current change (%, negative = inhibition) at 1uM” value is 10.1%. The figure for `CCN(CC)S(=O)(=O)c1ccc(Nc2ccc(-c3ccc4c(c3)OCCO4)nn2)cc1` is 10.1%.

With `CCCCn1c(N)c(N(CCOC)C(=O)CSCC(=O)Nc2cccc(C)c2)c(=O)[nH]c1=O`, the “hERG current change (%, negative = inhibition) at 1uM” value worked out at 8.98%. The figure for `Cc1ccccc1Cn1c(CN2CCN(c3ccc(F)cc3)CC2)nc2c1c(=O)n(C)c(=O)n2C` is 6.86%. `COCCn1c(=NC(=O)c2ccc3c(c2)OCCO3)sc2cc(S(N)(=O)=O)ccc21`: the “hERG current change (%, negative = inhibition) at 1uM” value was found to be 2.81%.

With `COc1ccc(-c2c(C)oc3c(CN4CCN(C)CC4)c(O)ccc3c2=O)cc1`, the “hERG current change (%, negative = inhibition) at 1uM” value amounted to 12.5%. The figure for `Cc1ccc(S(=O)(=O)N2CCN(C(=O)CSc3n[nH]c(N)n3)CC2)c(C)c1` is 2.14%; for `COC(=O)CSC1=C(C#N)C(c2ccc(C)o2)CC(=O)N1` (centres unmarked) it is 15.4%; for `Cc1ccc(C2Nc3ccccc3C(=O)N2CCCN2CCOCC2)cc1` (centres unmarked) it is 5.5%.

As for `CC(=O)c1c(C)nc(-c2ccc(Cl)cc2)nc1N=CN(C)C`, the “hERG current change (%, negative = inhibition) at 1uM” value is 15.4%.

On to `COc1ccc(Cl)cc1NC(=O)CSc1nnc(C)c(=O)n1N`, for which the “hERG current change (%, negative = inhibition) at 1uM” value is given as 14.1%. The value for `Cc1ccccc1NC(=S)N(CCc1c(C)[nH]c2ccc(F)cc12)Cc1ccncc1` was 7.37%; that for `CCOC(=O)C(C(=O)OCC)C(Nc1ccc(Br)cc1)c1ccccc1` (centres unmarked) was -1.19%. The figure for `CC(/C=N/NC(=O)c1cc(-c2ccc(Cl)cc2)nc2ccccc12)=C\c1ccco1` is 21.1%.

In the case of `CCN1C(=O)/C(=C\c2ccc3c(c2)OCO3)C(C(=O)OC)=C1C`, the “hERG current change (%, negative = inhibition) at 1uM” value was 13.1%. With `COc1cccc(N/C=C/C(=O)c2ccc(C)cc2)c1`, the “hERG current change (%, negative = inhibition) at 1uM” value was found to be 11.6%.

With `Cc1ccc(Cl)cc1N(CC(=O)N1CCCCCC1)S(C)(=O)=O`, the “hERG current change (%, negative = inhibition) at 1uM” value is on record as 7.25%. The value for `Cc1noc(C)c1COc1ccc(C(=O)NCC2CCCO2)cc1` (centres unmarked) was 11.4%; that for `Cc1nccn1-c1c([N+](=O)[O-])c(=O)n(C)c2ccccc12` was 11.9%; that for `CCC(C)C(NC(C)=O)C(=O)NC(=O)NC(c1ccccc1)c1ccccc1` (centres unmarked) was 5.03%. The value for `CN1C2CCC1CC(NS(=O)(=O)c1cc(Cl)c(Cl)cc1Cl)C2` (centres unmarked) was 13.3%; that for `O=C(NC1CCSc2ccccc21)c1c(F)cccc1Cl` (centres unmarked) was 12.6%. For the compound `COc1ccc(NC(=O)C2Cc3cccc(OC)c3O/C2=N\O)cc1` (centres unmarked), the “hERG current change (%, negative = inhibition) at 1uM” value is on record as 16.5%. The figure for `Fc1ccccc1N1CCN(Cc2cccnc2)CC1` is 5.09%. Consider `COc1ccc(NC(=S)NN2C(C)CCCC2C)cc1` (centres unmarked), for which the “hERG current change (%, negative = inhibition) at 1uM” value came out at 9.86%. As to `COc1cccc(/C=N/NC(=O)c2c(C)nc3ccc(Br)cn23)c1`, the “hERG current change (%, negative = inhibition) at 1uM” value was -3.36%. On to `Cc1ccc(-c2noc(CCC(=O)NCCCN3CCN(c4ccc(F)cc4)CC3)n2)cc1`, for which the “hERG current change (%, negative = inhibition) at 1uM” value is on record as -20.6%.

In the case of `CC1CCCN(CCCOc2ccc(Cl)cc2Br)C1.O=C(O)C(=O)O` (centres unmarked), the “hERG current change (%, negative = inhibition) at 1uM” value was -30.3%.

Take `Cc1cc(C(=O)NN=C2CCCCCCC2)c2ccccc2n1`: the “hERG current change (%, negative = inhibition) at 1uM” value was determined as 5.95%.

`Nc1nc(N)c(N=Nc2ccc(C(=O)O)cc2)c(N)n1`: the “hERG current change (%, negative = inhibition) at 1uM” value worked out at 8.04%. The value for `Cc1c(C(=O)NNC(=O)c2ccccc2O)oc2ccc(Br)cc12` was 7.49%. Consider `Cc1nc2ccc(S(=O)(=O)NCC(=O)NCc3ccc(Cl)cc3)cc2s1`, for which the “hERG current change (%, negative = inhibition) at 1uM” value is 16.2%. The value for `Cc1cc(OCc2nn[nH]n2)c2c(C)c(CC(=O)O)c(=O)oc2c1` was 14.3%; that for `CCCCNC(=S)NNC(=O)c1ccoc1C` was -1.68%.

On to `Cc1cc(C)c2c(CC(=O)NNC(=O)c3ccccc3)coc2c1`, for which the “hERG current change (%, negative = inhibition) at 1uM” value turned out to be 16.3%. The figure for `CS(=O)(=O)N(CC(=O)N1CCCC1)c1cc(Cl)ccc1Cl` is 17.3%; for `CCC1CCc2c(sc(NC(=O)c3cccnc3)c2C(N)=O)C1` (centres unmarked) it is 13.7%. The figure for `C/C(=N\Nc1nc(N2CCCCC2)nc(N2CCOCC2)n1)c1cccs1` is 15.7%; for `Cc1ccc(S(=O)(=O)N2CCC(C(=O)OCc3c(C)noc3C)CC2)cc1C` it is -3.32%. The figure for `CC(C)(C)NC(=O)CN(C(=O)c1csnn1)c1cccc2c1CCCC2` is 5.8%. For the compound `O=C(Nc1ccc2c(c1)OCO2)C(c1ccccc1)N1CCC2(CC1)OCCO2` (centres unmarked), the “hERG current change (%, negative = inhibition) at 1uM” value was found to be 6.28%. The value for `CC(=O)N1CCc2cc(C(=O)CN3CCCN(Cc4ccc(F)cc4)C3)ccc21` was 9.22%. The figure for `CCN1C(=O)[C@H]2[C@@H](c3ccc(SC4CCCCC4)c(OC)c3)N3CCCC[C@@]3(C(=O)OC)[C@H]2C1=O.O=C(O)C(F)(F)F` is 12.9%.

Regarding `CCCC(=O)Nc1nnc(SCC(=O)Nc2ccc3c(c2)OCO3)s1`, the “hERG current change (%, negative = inhibition) at 1uM” value is recorded as 6.3%. The figure for `C/C(=N\NC(=S)Nc1cc(S(=O)(=O)N2CCOCC2)ccc1Cl)c1ccc(N2CCOCC2)cc1` is 10.9%; for `CCCCCCCCC(=O)NNC(=O)c1c(O)c2ccccc2n(CCC)c1=O` it is 13.3%; for `CCc1ccc(/C=C2/SC(=S)N(CC(=O)Nc3nc4ccccc4s3)C2=O)cc1` it is 10.7%. The value for `Cc1nc(C)c(C(=O)N(c2ccc(C)c(C)c2)C(C(=O)NCc2ccco2)c2ccccc2)s1` (centres unmarked) was -0.491%; that for `COCCNC(=O)c1ccccc1NC(=O)C1COc2ccccc2O1` (centres unmarked) was 8.05%.

`Cc1cc(C)c2c(CCl)cc(=O)oc2c1`: the “hERG current change (%, negative = inhibition) at 1uM” value came out at 9.68%. The value for `COc1ccc(C(=O)c2ccc(CC#N)s2)cc1` was 10.2%; that for `CCOc1ccc2[nH]c(=O)c(CN(CCCO)C(C)=O)cc2c1` was -0.692%. Consider `CCOC(=O)Cn1cncc1-c1ccc([N+](=O)[O-])cc1`, for which the “hERG current change (%, negative = inhibition) at 1uM” value was determined as 15.6%. The value for `CCc1ccc(NC(=O)CS(=O)CC(=O)Nc2ccc(-n3cnnn3)c(C)c2)cc1` (centres unmarked) was 10.3%. The figure for `c1ccc(-c2nnc(CN3CCN(c4ccccc4)CC3)o2)cc1` is 8.15%; for `COc1cccc(-c2cc3c(-n4cccc4)ncnc3o2)c1` it is 4.88%.

On to `CNc1nc2[nH]c(=O)c3c(c2s1)OC(N)=C(C#N)C3c1cccc(F)c1` (centres unmarked), for which the “hERG current change (%, negative = inhibition) at 1uM” value is recorded as 14.2%. With `C/C(=N/NC(=O)c1cc(Cl)ccc1O)C12CC3CC(CC(C3)C1)C2`, the “hERG current change (%, negative = inhibition) at 1uM” value is reported as 8.59%. The figure for `COc1ccc(C2(O)CCN(CC(=O)Nc3nccs3)CC2)c(OC)c1` is -12.7%.

As for `CCOC(=O)C(C)Oc1ccc2c(CC)cc(=O)oc2c1C` (centres unmarked), the “hERG current change (%, negative = inhibition) at 1uM” value was determined as 0.789%.

Turning to `Cc1ccc(NC(=O)C(=O)NCCCN2CCOCC2)c(C)c1`, the “hERG current change (%, negative = inhibition) at 1uM” value turned out to be 4.82%. The value for `O=C(CSc1nc2ccc(Cl)cc2[nH]1)NCCc1ccc(Cl)cc1` was 11.7%.
